Test results: patent publication US20190284293A1, “COMBINATION THERAPY WITH ANTI-CD73 ANTIBODIES” (BRISTOL-MYERS SQUIBB COMPANY, priority 2016, published 2019)

What was measured:
[1] = SEC-MALS, oligomeric state of CD73 mAbs; type: physicochemical
Method: The oligomeric state of CD73 mAbs were examined by size-exclusion chromatography coupled to an in-line multi-angle light scattering detector (SEC-MALS). Isocratic separations were performed on a Shodex PROTEIN KW-803 column connected to an Prominence Shimadzu UFLC in buffer containing 200 mM K2HPO4, 150 mM NaCl, pH 6.8, containing 0.02% Na azide (0.1 μm filtered) running at 0.5 mL/min. Samples were injected onto the column using a SIL-20AC Prominence Shimadzu autosampler, and data were obtained from three online detectors connected in series: a Prominence SPD-20AD diode array UV/vis spectrophotometer followed by a Wyatt miniDAWN™ TREOS Multi-Angle Light Scattering Detector then a Wyatt Optilab T-rEX Refractive Index Detector. Data (as shown in Table 15 below) were collected and analyzed using Astra (Wyatt) and Labsolutions (Shimadzu) software.

[2] = Differential scanning calorimetry (DSC), thermal stability; type: physicochemical; conditions: PBS pH 7.1
Method: The thermal stability of CD73 mAbs were determined using a MicroCal Capillary DSC instrument (GE Healthcare). Antibodies were analyzed at a concentrations of 0.5-0.75 mg/ml in PBS pH 7.1. To stabilize the DSC instrument baseline and obtain a consistent thermal history, multiple scans of buffer alone in both the sample and reference cell were recorded prior to sample analysis. Sample scans contained mAb in the sample cell and PBS pH 7.1 in the reference cell. All scans were run from 10-110° C. at a scan rate of 60°/hr using a 5 minute pre-cycle thermostat period and no post-cycle thermostat period. Data (as shown in Table 15 below) were analyzed using MicroCal Origin Cap DSC analysis software. The appropriate buffer-buffer blank scans were subtracted from the sample-buffer data, and the transition midpoint temperature (Tm) values were determined by fitting the data to a non-2-state model. Tm1, Tm2 and Tm3 are the Tms for different domains in the antibodies.

B1: 7A11: human anti-human CD73 monoclonal antibody, IgG1za, VK1 (antibody)
heavy: EVQLVESGGGLVQTGRSLRLSCAASGFTFDDYAMHWVRQAPGKGLEWVSDISWNSDIIGYADSVKGRFTISRDNAKNSLYLQMNSLRAEDTALYYCAKDIYGSGSSFFDYWGQGILVTVSS[human IgG1 constant region cut from this listing]
light: DIQMTQSPSSLSASVGDRVTITCRASQYISSWLAWYQQKPEKAPKSLIYAASSLQSGVPSRFSGSGSGTDFTLTISSLQPEDFATYYCQQYHSYPPTFGQGTRLEIKRTVAAPSVFIFPPSDEQLKSGTASVVCLLNNFYPREAKVQWKVDNALQSGNSQESVTEQDSKDSTYSLSSTLTLSKADYEKHKVYACEVTHQGLSSPVTKSFNRGEC
[1]
  SEC % HMW: 0.5%
  SEC % LMW: 0.5%
  SEC % Monomer: 98.5%
[2]
  DSC Tm1 (° C.): 64.8 °C
  DSC Tm2 (° C.): 70.2 °C
  DSC Tm3 (° C.): 82.8 °C
  DSC Tonset (° C.): 56.0 °C
